Over roughly 33,000 sequences, “E-score (-0.5 to 0.5)” has its median near -0.056; the highest 2% begin near 0.38. The list shows a part of the results.
These sequences were tested against Stb4 (UniProt P50104) (assay: PBM E-score (8-mer binding enrichment) (E-score (-0.5 to 0.5)); higher = stronger / more preferred TF binding; most listed sequences are background and not binding sites). Conditions: protein concentration: 200 nM; construct: GST-DNA-binding domain.
Summary of the method: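 GST-tagged yeast TFs (full-length or DNA-binding domain) were made by PURExpress in vitro transcription/translation and applied at about 100-200 nM to universal all-10-mer Agilent arrays. The arrays were made double-stranded by primer extension, on fresh or once-stripped slides. Bound protein was detected with fluorescent anti-GST, and scans were normalised with masliner. Each ungapped eight-base word, pooled with its reverse complement, received an E-score (modified Wilcoxon-Mann-Whitney statistic) from the Universal PBM Analysis Suite.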

Sequence | PBM E-score
AAGCGGTC | 0.105
ACGTTCAG | -0.252
GCGGTACA | 0.0346
ATGCGAAT | 0.0493
GAAAATGA | 0.0976
AATAATGA | -0.0795
CCTTAGCC | -0.0423
TCTAAAGA | -0.015
ACGGGCAC | -0.12
AACCTTAT | -0.148
AACGGATA | 0.439
CCAGTCAA | -0.126
ACTCCGGA | 0.411
AATAGATC | 0.0452
CGCGAGGC | 0.0155
CGATTCTA | 0.0196
CTGCCAAA | -0.04
CTACCGCC | 0.0766
AAAAGTCC | 0.0392
AGTCCACT | -0.244
AAGAAGGT | -0.0996
AAGAACGG | 0.157
AGAAGGCC | -0.0107
AAGTCATC | -0.104
AGACCAAG | 0.0151

Sequence | PBM E-score
ACCGGTAC | 0.154
GAATGCAA | -0.0347
TGGAGGAA | -0.133
CGATAAGC | 0.104
AGATAGGG | -0.195
AGGCATCC | -0.0871
ATTTCCCA | -0.0128
ATAACACG | -0.0189
GGAAGTTA | 0.332
AATCAAAC | 0.00112
CCCCCCGG | 0.121
GGTTCATA | -0.0132
CTGTGAAG | -0.156
CCCTGTGA | -0.301
CCTGTTAC | 0.00149
CGAACAGC | -0.0775
CGATCTAC | 0.0757
GTTGCTAA | 0.137
ATTGCAAG | -0.19
AAGGCTAT | -0.0614
CATGTGGC | -0.158
CCCGAAAG | 0.393
AGGCAGAA | -0.0655
AGATCACA | -0.0575
CTAGCCGC | 0.21

Sequence | PBM E-score
CCACTTAC | 0.0392
AGAGATCC | 0.174
ACTACAAT | -0.0319
GGCGCGCC | -0.048
AGAGCAAG | -0.114
ACACGAGT | -0.0741
GGCCACCA | -0.0609
CGTCCATA | -0.125
GCGGTATA | 0.0922
CGGAATTA | 0.401
CCAACAGG | -0.253
CTATATAC | -0.0645
CCCGTTCA | 0.0292
ACCTGATA | -0.133
TTGACAAA | -0.0958
AAAGGGGG | -0.106
GGTACTAA | 0.117
ACAATCGT | -0.281
GTGGCTAA | -0.00858
CCAAGCGG | -0.0587
ACGATCCC | 0.192
TAATGTAA | -0.0479
AGCAGCCA | -0.172
AGAAACCC | 0.075
CCCTGAAG | -0.26

Sequence | PBM E-score
GACTTGAA | 0.0368
AGAAAGCC | -0.113
ACCCGCGG | 0.361
CTCTCCTC | -0.208
CGTTCTAC | -0.181
AGCCTCGA | -0.195
GCTTACAA | -0.24
AAAGGGAT | -0.175
AGTCACCG | 0.114
CAAGAAAA | 0.0813
TACCCGCA | 0.357
CAATGGAG | -0.212
CGGTGGAC | -0.00414
GATGTGAC | 0.101
CACTCGAG | -0.175
GATCGATC | -0.0813
CCTCCTCC | -0.0669
GACATGGA | -0.199
CCTGGAGA | -0.28
CCCTGGGA | -0.0681
CAACTACA | -0.0599
ATGTACCA | 0.0249
GCCAGCCA | -0.197
AACATGCC | 0.0469
ATTACCAA | -0.0656

Sequence | PBM E-score
CCGCTACA | 0.109
GCAAGTCC | -0.0553
CTCGGGCA | 0.325
AGACCATA | 0.121
CTTAGTGA | -0.137
ATGACTCC | 0.0931
CGAGCCGA | 0.399
GGTACCCA | -0.129
AAGGGCCG | 0.169
AACGTTCA | -0.267
ATCAAAAT | -0.203
GGTAGGAA | 0.0304
CATGCGTA | 0.00555
AGGGCATC | -0.217
AATACTAA | 0.113
CCAAGAAA | -0.0741
TGCACGCA | -0.163
ACGGACTA | -0.0472
GGTGAATA | 0.0433
AAACAGAC | -0.139
CCGTCGCC | 0.08
ATCTGATC | 0.00741
CGCTTAAG | -0.148
TAACCGAA | 0.431
AAATCCGA | 0.396

Sequence | PBM E-score
CGTGGTAG | -0.121
GTGACCTA | -0.113
CGCTGATC | 0.3
CCCCATAC | -0.00014
CCTTGTAC | -0.076
AGTTTTGG | -0.144
AGCTCAGG | -0.293
CATCCAGG | -0.178
GGAACCAC | 0.243
AAGCCGGC | 0.273
AGCGTATA | 0.00919
ATATACTC | -0.0565
CACTATAA | -0.38
AGCAATTG | -0.228
ACGCAGCT | -0.208
GCGGTCTA | -0.238
CCAAGGTC | -0.179
CTCAACTC | 0.0905
AGAAACTC | 0.0723
CCGGTCAC | 0.108
CCAACGGA | 0.201
GCTACTCA | -0.211
ATACAGGA | 0.0661
AACGATCT | 0.00017
ACCATCGG | 0.237

Sequence | PBM E-score
AGCGCACT | -0.213
ACCGCGTA | 0.0889
AGGACAGC | -0.211
GACACCCC | -0.041
CACTAACC | 0.0836
ACAAGTGA | 0.0183
CGAAGTGA | 0.0225
ATGAGCAA | -0.0718
AAGACGAT | -0.308
GCGTACTA | -0.197
AGCGCGCC | 0.04
AGGGACCA | -0.256
ACTGTTAG | -0.274
AGTCTACC | -0.0892
GCTCCGCC | 0.0632
ACGTTCGG | 0.358
GCACGAGC | -0.111
GCATAGAC | -0.162
AGAAACAT | -0.0859
ATCCGAGG | 0.481
AGGTTGCA | -0.102
CCAGGAGG | -0.205
